Results reported in the supplement of paper PMC12217912.
The other results are listed elsewhere or left out. The full chains were built here from the parent and the listed change. Inactive controls read about 0.05.

B1: TEV protease; numbered along this chain (parent)
chain: MGESLFKGPRDYNPISSSICHLTNESDGHTTSLYGIGFGPFIITNKHLFRRNNGTLVVQSLHGVFKVKDTTTLQQHLVDGRDMIIIRMPKDFPPFPQKLKFREPQREERICLVTTNFQTKSMSSMVSDTSCTFPSGDGIFWKHWIQTKDGQCGSPLVSTRDGFIVGIHSASNFTNTNNYFTSVPKNFMELLTNQEAQQWVSGWRLNADSVLWGGHKVFMVKPEEPFQPVKEATQL

Variants of: B1
Experiment: raw area under fraction-flipped curve 0-4 h after induction (AUC4h, not background-subtracted), DNA-recorder readout of cleavage of the substrate (dimensionless); higher = more cleavage of the substrate by the protease variant
Conditions: temperature: 34 °C; time window: 0-4 h after rhamnose induction
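Note: Bxb1 expression induced with 0.2% (w/v) L-rhamnose at OD600 near 0.5, cultures sampled hourly, flipped fraction per protease–substrate barcode pair counted by paired-end Illumina sequencing.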

Variant | area with substrate ENLYGQS | area with substrate ENLYHQS | area with substrate ENLYKQS | area with substrate ENLYNQS | area with substrate ENLYRQS | area with substrate ENLYSQS | area with substrate ENLYWQS | area with substrate ENLYVQS | area with substrate ENLYPQS | area with substrate ENLYTQS
F6N | 0.0672 | 0.0633 | 0.0419 | 0.0853 | 0.0638 | 0.0805 | 0.0946 | – | – | –
T181C | – | 0.0977 | – | – | – | – | – | 0.121 | – | –
Q97E | 0.0675 | – | – | 0.0669 | 0.0589 | 0.103 | – | 0.0953 | 0.0552 | 0.0709
Q97D | 0.0768 | – | – | – | – | – | 0.127 | – | – | –
E223D | 0.0636 | – | – | – | – | – | – | – | – | –
N193K | 0.0412 | – | – | – | 0.0727 | – | – | – | – | –
T119L | 0.035 | – | 0.0236 | – | – | – | – | – | – | –
T119S | 0.0763 | 0.0681 | 0.0524 | – | 0.0587 | – | 0.0858 | 0.136 | 0.0446 | 0.079
T119W | 0.0806 | – | – | – | – | – | 0.0948 | 0.122 | 0.0898 | –
G214F | 0.0653 | – | – | 0.0574 | – | – | – | 0.0759 | – | –
S182V | – | 0.0707 | 0.0416 | – | – | – | 0.0789 | – | – | –
S182M | 0.0311 | – | – | – | – | – | – | – | – | –
T147V | 0.0679 | 0.0613 | 0.0217 | 0.0602 | – | – | – | 0.0725 | 0.0658 | 0.0681
N177G | 0.0607 | 0.0605 | 0.0512 | – | 0.0536 | – | 0.0574 | – | 0.0219 | 0.0576
T174I | 0.0639 | 0.0618 | – | 0.062 | 0.0582 | – | – | – | – | 0.0614
L235Y | – | 0.0658 | 0.0691 | 0.0614 | 0.0068 | – | – | – | – | 0.0765
K148L | 0.0526 | 0.0741 | 0.0831 | 0.063 | – | – | 0.0992 | 0.114 | 0.0768 | 0.0868
W212N | 0.0224 | 0.0592 | 0.0249 | – | – | 0.0634 | – | – | – | –
G166K | – | 0.0436 | – | – | 0.0548 | – | – | 0.0592 | – | –
H76F | 0.0628 | 0.0534 | 0.0602 | 0.0761 | 0.0688 | – | 0.0706 | 0.0879 | 0.0766 | –
F92G | – | 0.0516 | – | – | – | – | – | – | – | –
V217L | – | – | – | – | – | 0.0863 | – | 0.101 | – | –
E195H | 0.0697 | – | 0.0453 | – | 0.0582 | – | 0.0798 | 0.135 | 0.0628 | –
G2T | – | 0.0753 | 0.0604 | – | – | 0.0884 | – | 0.065 | – | –
G2F | – | 0.0839 | – | 0.0393 | – | – | 0.139 | 0.0657 | – | 0.101
V58M | 0.0556 | – | – | 0.0743 | – | – | – | 0.115 | – | –
P228S | – | 0.0627 | 0.114 | 0.0764 | – | 0.13 | 0.0496 | 0.123 | – | –
P228R | – | 0.0618 | 0.0664 | 0.0674 | 0.0597 | – | 0.0891 | 0.0836 | 0.0714 | 0.0755

Variant | area with substrate ENLYGQS | area with substrate ENLYHQS | area with substrate ENLYKQS | area with substrate ENLYNQS | area with substrate ENLYRQS | area with substrate ENLYSQS | area with substrate ENLYWQS | area with substrate ENLYVQS | area with substrate ENLYPQS | area with substrate ENLYTQS
P228W | 0.0598 | – | – | 0.0679 | 0.0648 | 0.0619 | – | – | – | 0.0739
G35A | 0.056 | 0.0569 | – | – | – | – | – | – | – | –
G138L | 0.0741 | – | – | – | – | – | 0.0615 | 0.122 | – | –
G138F | 0.0528 | – | – | – | – | – | – | – | – | –
G138A | 0.0645 | – | – | – | – | – | – | – | – | –
S209R | – | – | – | 0.0825 | – | 0.0354 | 0.0823 | – | 0.0386 | –
S209Y | 0.0501 | 0.0681 | 0.0699 | – | – | 0.0555 | – | – | – | –
S209K | 0.0618 | 0.0573 | – | – | 0.0647 | – | – | 0.0785 | – | –
R109Y | 0.0618 | 0.0734 | 0.037 | – | – | 0.0565 | – | – | 0.0617 | 0.104
D79Q | – | 0.0661 | 0.0043 | – | – | – | 0.075 | – | 0.0678 | –
G202I | 0.0582 | – | 0.0555 | – | 0.0484 | – | 0.0543 | 0.0598 | – | –
Q194W | 0.0605 | 0.0678 | – | 0.0831 | – | 0.0776 | – | 0.0979 | – | –
I145N | 0.0437 | – | – | – | – | – | 0.0591 | 0.142 | – | –
L61T | 0.0692 | – | – | – | – | – | – | 0.133 | – | –
I86C | – | 0.07 | – | – | 0.0578 | – | – | – | 0.086 | –
S171I | 0.062 | – | – | 0.0637 | – | – | – | – | 0.0682 | –
S154D | 0.0492 | 0.0467 | – | – | 0.0504 | – | 0.0437 | – | – | –
M83R | 0.0582 | 0.058 | 0.0374 | 0.0318 | – | 0.0641 | – | 0.0469 | – | –
F173T | 0.0656 | 0.0638 | 0.07 | 0.07 | – | – | – | – | 0.0754 | 0.077
K90A | 0.0616 | – | 0.0482 | – | – | 0.0788 | – | 0.126 | – | 0.0711
C131E | 0.0656 | 0.0671 | – | – | – | 0.091 | – | 0.156 | – | –
C131P | 0.0541 | 0.0649 | – | – | 0.0552 | 0.0686 | – | 0.135 | – | –
A170Q | 0.0478 | – | – | – | – | – | – | – | 0.0421 | –
A170R | – | 0.0183 | – | – | – | – | – | – | – | –
A170K | – | 0.0631 | – | 0.0645 | – | – | 0.0447 | – | – | –
M1I | 0.0605 | – | 0.0674 | – | – | – | – | 0.0472 | – | –
N172A | 0.0564 | 0.0663 | – | 0.0605 | – | – | – | – | – | –

Same assay, conditions: temperature: 34 °C; time window: 0-4 h after rhamnose induction

Variant | area with substrate ENLYIQS | area with substrate ENLYQQS | area with substrate ENLYMQS | area with substrate ENLYEQS | area with substrate ENLYYQS | area with substrate ENLYLQS
T119L | 0.125 | 0.0629 | – | – | – | –
T119S | – | 0.0639 | 0.105 | – | – | –
T119W | – | 0.0609 | – | – | – | –
G214F | – | – | 0.0482 | 0.0521 | 0.0571 | –
N177G | 0.0719 | – | 0.0596 | – | – | –
L235Y | – | – | 0.095 | 0.0766 | – | –
K148L | 0.129 | 0.0747 | 0.0852 | – | 0.041 | –
W212N | – | – | 0.0678 | – | 0.084 | –
H76F | 0.132 | 0.0677 | 0.0657 | – | 0.0508 | –
F92G | – | – | – | – | – | 0.0463
V217L | – | 0.0666 | – | 0.0444 | – | –
E195H | 0.118 | 0.0596 | – | – | 0.0608 | –
G2F | 0.191 | 0.0713 | 0.122 | – | – | –
V58M | 0.103 | 0.0573 | – | – | – | –
P228S | – | – | 0.0822 | 0.0643 | – | 0.0976
P228R | – | 0.0826 | 0.0496 | 0.0735 | 0.071 | –
P228W | 0.123 | 0.0662 | – | 0.0734 | – | 0.087
H215I | – | – | – | 0.0621 | – | –
G35A | – | – | – | – | 0.0719 | –
G138L | 0.093 | – | 0.0653 | – | – | –

Variant | area with substrate ENLYIQS | area with substrate ENLYQQS | area with substrate ENLYMQS | area with substrate ENLYEQS | area with substrate ENLYYQS | area with substrate ENLYLQS
G138A | – | 0.0645 | – | – | – | –
S209R | – | 0.0689 | 0.0752 | 0.0592 | – | –
S209Y | 0.178 | – | 0.111 | 0.0661 | – | –
S209K | – | – | 0.0714 | 0.0198 | – | –
R109Y | 0.0981 | – | – | – | 0.0767 | –
D79Q | 0.114 | 0.0387 | 0.1 | – | – | –
G202I | 0.053 | 0.0616 | 0.0396 | 0.051 | – | –
Q194W | – | 0.0599 | – | – | – | –
I145N | – | 0.0609 | – | – | – | –
L61T | – | 0.0813 | 0.0805 | – | – | –
I86C | 0.101 | – | 0.0759 | – | – | –
S154D | 0.0691 | – | – | – | 0.0552 | 0.0812
F173T | – | – | – | – | 0.0656 | 0.0528
K90A | 0.101 | 0.049 | – | – | – | –
C131E | 0.115 | – | – | – | – | –
C131P | 0.116 | – | 0.0734 | – | – | –
A170Q | 0.0613 | – | – | – | – | –
A170R | 0.038 | – | – | – | – | –
A170K | – | – | 0.0762 | – | – | –
N172A | 0.0667 | – | – | – | 0.0452 | –
